{"source": "PubChem BioAssay AID686978", "about": "(National Center for Advancing Translational Sciences (NCATS), 2013)", "note": "Where “and” joins values, the source holds several entries; their conditions need not be identical. Equal entries are not always repeated. About 64,000 (15%) of roughly 420,000 compounds were called active. Inconclusive means that the source gave no clear call. Such entries were picked first, then a sample of the others. The call rests on the fitted dose curve; in most records, active means well fitted inhibition curve with a large enough effect; inconclusive means small, poorly fitted or top-dose-only effect; inactive means flat fitted curve, though single readings scatter. A potency beside an inconclusive call is a rough fit, not a confirmed value. A structure can be active in one record and inactive in another. Peptide text beside a SMILES is read from it. * marks the point of attachment. Boc = CC(C)(C)OC(=O)*; Bn = c1ccc(C*)cc1", "data": [{"assay": "qHTS for Inhibitors of human tyrosyl-DNA phosphodiesterase 1 (TDP1): qHTS in cells in absence of CPT; further: nearly all actives have a fitted effect of over 55% in size; further: potency means the concentration at half of the fitted maximal effect; tags describe the fitted curve by direction and shape; on activity change, negative = growth inhibition: on the % scale 0 is the no-effect control and ±100 the full control effect", "conditions": "DT40 Tdp1-/- hTDP1 cells, no CPT, ATP luminescence, 48 h; activity change, negative = growth inhibition: at 46.2 µM (top of the series) unless noted", "in_short": "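Camptothecin absent (DMSO only). Human TDP1-complemented DT40 knockout cells, 400 cells/well, 37 °C for minimum 48 hr; ATP measured via CellTiter-Glo, 30 min dark incubation, luminescence.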", "values": [{"smiles": "CCN1CCN(c2nc(S(=O)(=O)c3ccc(C)cc3)c(Cl)s2)CC1", "Potency": "inconclusive: 20.6 µM [inhibitor, partial curve]"}, {"smiles": "COc1ccc([N+](=O)[O-])cc1NCc1c(F)cccc1F", "Potency": "inactive"}, {"smiles": "CCC(=O)Nc1ccccc1-c1nc2ccccc2n(CC(=O)c2ccc(C)c(C)c2)c1=O", "Potency": "inconclusive: 29.1 µM [inhibitor, single point]"}, {"smiles": "CN(C)c1ccc(CNC(=O)C2(C)Cc3c(-c4ccc(N(C)C)cc4)ccnc3O2)cc1", "note": "(stereo unspecified)", "Potency": "active: 18.4 µM"}, {"smiles": "O=C(Cc1c[nH]c2ccccc12)N/N=C/c1cccc(F)c1", "Potency": "active: 3.66 µM"}, {"smiles": "CCC(CC)NC(=O)c1ccccc1Oc1ccccc1", "Potency": "inconclusive: 10.3 µM [inhibitor, partial curve]"}, {"smiles": "CCCCN(CCCC)CP(=O)(c1ccccc1)c1ccccc1", "Potency": "active: 14.6 µM"}, {"smiles": "O=c1oc2ccccc2nc1/C=C(O)/C=C\\c1ccccc1", "Potency": "active: 23.1 µM"}, {"smiles": "CCC(CC)C(=O)OCC(=O)Nc1cc(OC)c([N+](=O)[O-])cc1C", "Potency": "inconclusive: 29.1 µM [inhibitor, single point]"}, {"smiles": "S=c1[nH]nc(-c2ccc(Br)cc2)n1Cc1ccccc1", "Potency": "inconclusive: 25.9 µM [inhibitor, single point]"}, {"smiles": "O=S(=O)(Nc1cccc(-c2ccc(N3CCCCCC3)nn2)c1)c1ccccc1F", "Potency": "inconclusive: 14.6 µM [inhibitor, single point]"}, {"smiles": "COc1ccccc1/C=C/C=N/NC(=O)c1ccc(=O)n(C)c1", "Potency": "inactive"}, {"smiles": "CC(=O)CCc1oc2ccc(C)cc2c1Cc1ccccc1", "Potency": "inconclusive: 29.1 µM [inhibitor, single point]"}, {"smiles": "C[C@]12CCC(=O)C=C1C=C[C@@H]1[C@@H]2CC[C@@]2(C)[C@H]1CC[C@@]21CCC(=O)O1", "Potency": "inactive and active: 15 µM"}, {"smiles": "Cc1oc2ncn(C)c(=O)c2c1C(=O)Nc1ccccn1", "Potency": "inactive"}, {"smiles": "C/C(N)=C(/C#N)C(=O)COc1ccc(Cl)cc1Cl", "Potency": "inconclusive: 29.1 µM [inhibitor, single point]"}, {"smiles": "O=C(Nc1cccc(S(=O)(=O)NC2=NCCC2)c1)c1ccc(OC(F)F)cc1", "Potency": "inconclusive: 23.1 µM [inhibitor, single point]"}, {"smiles": "COc1ccc(CCNC(=O)CCNC(=O)c2ccccc2Cl)cc1", "Potency": "inactive"}, {"smiles": "COc1ccc(-c2csc(NC(=O)C3CC(=O)N(Cc4ccco4)C3)n2)cc1", "note": "(stereo unspecified)", "Potency": "active: 20.6 µM"}, {"smiles": "COc1ccccc1NC(=O)C1CCCN(S(=O)(=O)c2ccccc2)C1", "note": "(stereo unspecified)", "Potency": "inconclusive: 29.1 µM [inhibitor, single point]"}, {"smiles": "Cc1ccc(CN(C(=O)COc2ccc(Cl)c(C)c2)c2ccccn2)o1", "Potency": "active: 14.6 µM"}, {"smiles": "CN(C)c1ccc(-c2csc(C(O)(c3ccccc3)C(F)(F)F)n2)cc1", "note": "(stereo unspecified)", "Potency": "active: 7.31 µM"}, {"smiles": "CC(C)CC(NC(=O)C(NC(=O)C(Cc1ccc(OCc2ccccc2)cc1)NC(=O)OC(C)(C)C)C(C)C)C(N)=O", "note": "(stereo not drawn) (Boc-Tyr(Bn)-Val-Leu-NH2; configuration not given here)", "Potency": "active: 16.4 µM"}, {"smiles": "CCOc1ccc2ncc(S(=O)(=O)c3ccc(C)cc3)c(N3CCC4(CC3)OCCO4)c2c1", "Potency": "active: 23.1 µM"}, {"smiles": "Cc1cc(C)cc(N(CC(=O)NC2CCC(C)CC2)S(=O)(=O)c2c(C)noc2C)c1", "note": "(stereo unspecified)", "Potency": "inconclusive: 16.4 µM [inhibitor, single point]"}, {"smiles": "Cc1c(-c2ccc(Cl)cc2)[n+](=O)c(-c2ccccc2)cn1[O-]", "activity change, negative = growth inhibition": "inconclusive: -35.9% [inhibitor]"}, {"smiles": "Cc1ccc(-c2cc(-c3ccc4c(c3)NC(=O)CO4)nc3c2COc2ccc(C)cc2-3)cc1", "Potency": "active: 2.06 µM"}, {"smiles": "Cc1nc2nc(SCc3c(F)cccc3Cl)nn2c(C)c1Cc1ccccc1", "Potency": "active: 8.2 µM"}, {"smiles": "CN(C)S(=O)(=O)c1ccc(C(=O)NCCS(=O)(=O)N2CCN(c3ccccc3)CC2)cc1", "Potency": "inconclusive: 9.2 µM [inhibitor, partial curve]"}, {"smiles": "COCCN1CCc2c(C)nc3c(-c4ccc(OC)c(OC)c4)cnn3c21", "Potency": "inconclusive: 29.1 µM [inhibitor, single point]"}, {"smiles": "COc1ccc(OC)c(/C=C/C(=O)OCC(=O)c2c(N)n(C)c(=O)n(C)c2=O)c1", "Potency": "inactive"}, {"smiles": "COc1ccc(CN(Cc2nc3ccccc3c(=O)[nH]2)C(=O)c2ccco2)cc1", "Potency": "inactive"}, {"smiles": "C[C@H](CO)N1C[C@H](C)[C@@H](CN(C)C(=O)c2ccc(F)cc2)Oc2cc(Br)ccc2S1(=O)=O", "Potency": "active: 13 µM"}, {"smiles": "O=C(c1ccc2c(=O)n(CCc3ccccc3)c(=O)[nH]c2c1)N1CCN(c2ccccc2)CC1", "Potency": "inconclusive: 25.9 µM [inhibitor, partial curve]"}, {"smiles": "COc1ccc(OC)c(NC(=O)C2CC(=O)N(c3ccc(Br)cc3)C2)c1", "note": "(stereo unspecified)", "Potency": "inactive"}, {"smiles": "COc1ccc(S(=O)(=O)N2CC3C4C=CC(C4)C3C2)cc1", "note": "(stereo unspecified)", "Potency": "inactive"}, {"smiles": "CCc1ccc(C(=O)NNc2ccc(Cl)cc2)cc1", "Potency": "inactive"}, {"smiles": "CCn1cc([N+](=O)[O-])c(C(=O)N2CCCC2)n1", "Potency": "inactive"}, {"smiles": "COC(=O)[C@@H](N)Cc1ccc(O)c(O)c1", "Potency": "inactive and inconclusive: 33.5 µM [inhibitor, single point]"}, {"smiles": "COc1ccc(C(=O)N2CCC3(CC2)CN(c2ccc(-c4ccccc4)cc2)C3)cc1", "Potency": "inconclusive: 2.59 µM [inhibitor, full curve, poor fit]"}, {"smiles": "O=C(C1COc2ccccc2O1)N1CCN(c2ccc(C(F)(F)F)cn2)CC1", "note": "(stereo unspecified)", "Potency": "inactive"}, {"smiles": "CC1=C(C(=O)Nc2ccccc2C)C(c2ccc(C)o2)NC(=S)N1", "note": "(stereo unspecified)", "Potency": "inactive"}, {"smiles": "O=C(COc1ccccc1)Nc1cccc(-c2ccc(N3CCOCC3)nn2)c1", "Potency": "active: 9.2 µM"}, {"smiles": "S=C(NCc1ccccn1)Nc1ccccc1Cl", "Potency": "inconclusive: 18.4 µM [inhibitor, partial curve, poor fit]"}, {"smiles": "CC1(Cc2ccc(OC(F)(F)F)cc2)C(=O)Nc2ccc(S(=O)(=O)NC3CCCCC3)cc21", "note": "(stereo unspecified)", "Potency": "inconclusive: 29.1 µM [inhibitor, single point]"}, {"smiles": "CCCn1c(N)c(C(=O)COc2ccc(Br)cc2F)c(=O)n(C)c1=O", "Potency": "inconclusive: 16.4 µM [inhibitor, single point]"}, {"smiles": "COc1cccc(N2CCN(C(=O)C3CCN(S(=O)(=O)c4cccs4)CC3)CC2)c1", "Potency": "active: 13 µM"}, {"smiles": "CC(=O)Nc1cncc(-c2cccc(S(C)(=O)=O)c2)n1", "Potency": "inactive"}, {"smiles": "C[C@@H]1C[C@H]2[C@@H]3CCC4=CC(=O)C=C[C@]4(C)[C@@]3(F)C(O)C[C@]2(C)[C@@]1(O)C(=O)CO", "note": "(stereo partly specified)", "Potency": "inactive"}, {"smiles": "COc1cc(C(O)c2nc(-c3cc4ccccc4o3)cs2)ccc1F", "note": "(stereo unspecified)", "Potency": "active: 23.1 µM"}, {"smiles": "Cc1ccc(C(=O)/C=C/c2cn(CC(O)CN3CCc4ccccc43)c3ccccc23)cc1", "note": "(stereo unspecified)", "Potency": "inconclusive: 25.9 µM [inhibitor, single point]"}, {"smiles": "CN(C)CC(=O)c1c[nH]c2ccccc12", "Potency": "inactive and inconclusive: 35.5 µM [inhibitor, single point]"}, {"smiles": "CC1(C(=O)N2CC3(CC(c4cccc([N+](=O)[O-])c4)=NO3)C[C@H]2C(=O)NCC(N)=O)CC1", "note": "(stereo partly specified)", "Potency": "inactive"}, {"smiles": "CCCn1cnc2cc(NCc3ccccn3)ccc21", "Potency": "inconclusive: 23.1 µM [inhibitor, single point]"}, {"smiles": "COCCNCCOc1ccccc1-c1ccccc1", "activity change, negative = growth inhibition": "inconclusive: -37.4% [inhibitor]"}, {"smiles": "CN(C)C(CNC(=O)c1cccc(C(F)(F)F)c1)c1ccco1", "note": "(stereo unspecified)", "Potency": "inactive"}, {"smiles": "CCOc1ccc(-c2[nH]ncc2-c2ccccc2)c(O)c1", "Potency": "inconclusive: 25.9 µM [inhibitor, single point]"}, {"smiles": "CCN(CC)S(=O)(=O)c1cccc(NC(=O)c2cncc(Br)c2)c1", "Potency": "inconclusive: 29.1 µM [inhibitor, single point]"}, {"smiles": "Cc1ncc(S(=O)(=O)c2ccc(Cl)cc2)c(-c2ccccc2)n1", "Potency": "inactive"}, {"smiles": "O=C(C[C@H]1C[C@H](C(=O)N2CCOCC2)[C@@]2(CCC3CCCC3)c3[nH]c4cc(-c5ccco5)ccc4c3CCN2C1=O)NCCCn1ccnc1", "Potency": "inconclusive: 29.1 µM [inhibitor, single point]"}, {"smiles": "COc1ccccc1N1CCN(C(=O)NCc2cccc(C(F)(F)F)c2)CC1", "Potency": "inconclusive: 23.1 µM [inhibitor, single point]"}, {"smiles": "CCCn1c(=NC(=O)c2ccco2)c(C(=O)OCC)cc2c(=O)n3ccccc3nc21", "Potency": "inconclusive: 29.1 µM [inhibitor, single point]"}, {"smiles": "NNC(=O)c1cc(-c2cccs2)nc2ccccc12", "Potency": "inconclusive: 25.9 µM [inhibitor, single point]"}, {"smiles": "Cc1ccc(CN2CCC(CNC(=O)c3cc4ccc5cccnc5c4[nH]3)CC2)cc1", "Potency": "active: 16.4 µM"}, {"smiles": "CC1(C)[C@@H](O)CC[C@]2(C)[C@H]3C(=O)C=C4[C@@H]5C[C@@](C)(C(=O)O)CC[C@]5(C)CC[C@@]4(C)[C@]3(C)CC[C@@H]12", "Potency": "active: 2.37 µM"}, {"smiles": "CCOc1cc2sc(N3CCC(C(=O)Nc4ccccc4Cl)CC3)nc2cc1Br", "Potency": "inconclusive: 20.6 µM [inhibitor, partial curve]"}, {"smiles": "CC(C)[C@H](NC(=O)c1ccc(Cl)cc1)C(=O)OCC(=O)N1CCN(c2ccccc2)CC1", "Potency": "active: 20.6 µM"}, {"smiles": "O=C(C1CCCN1S(=O)(=O)c1cccc2cccnc12)N1CCc2ccccc21", "note": "(stereo unspecified)", "Potency": "inconclusive: 23.1 µM [inhibitor, single point]"}, {"smiles": "CCN(CC)C(=O)COc1ccc(-c2nnc(N3CCCCC3)c3ccccc23)cc1", "Potency": "inconclusive: 29.1 µM [inhibitor, single point]"}, {"smiles": "Cn1c(=O)c2c(-c3ccccc3)n(-c3ccccc3F)cc2n(C)c1=O", "Potency": "active: 13 µM"}, {"smiles": "Cc1ccc(-c2nn(CC(=O)NC3CCCC3)c3c2cnc2ccc(F)cc23)cc1C", "Potency": "active: 11.6 µM"}]}]}
